Results on 62 compounds are retold here after PubChem BioAssay AID493208 (National Center for Advancing Translational Sciences (NCATS), 2011).

The whole screen tested about 44,000 compounds, of which about 340 (0.77%) were called active. Roughly 5% stayed inconclusive and do not appear here. The call rests on the fitted dose curve; in most records, active means well fitted inhibition curve with a large enough effect; inconclusive means small, poorly fitted or top-dose-only effect; inactive means flat fitted curve, though single readings scatter. The list shows a part of the results.
Potency means the concentration at half of the fitted maximal effect.

The test in a line: Acumen qHTS Assay for Inhibitors of the mTORC1 Signaling Pathway in MEF (Tsc2-/-, p53-/-) Cells: Sytravon. Further: nearly all actives have a fitted effect of over 50% in size.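 On activity change, negative = inhibition: plate controls were DMSO for no effect and rapamycin for full effect.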 As to conditions: phospho-rpS6 immunofluorescence/PI, 24 h; series mostly up to 38.3 µM; activity change, negative = inhibition: at the top concentration. The essentials:
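Read-out: phospho-S6 Alexa-488 intensity over PI intensity per well, scored as % active cells using thresholds from rapamycin (7.5 nM) and DMSO controls. Tsc2-/-, p53-/- MEFs exposed to compound for 24 h; PI cell count recorded as viability.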
In the case of `O=C(c1ccc([N+](=O)[O-])cc1)N(Cc1ccco1)c1ccccn1`, the “activity change, negative = inhibition” value is inactive: -2.84%.
Same read-out and setting: the figure for `CC(C)C(=O)Nc1nnc(S(=O)(=O)N(C)Cc2ccc(F)cc2)s1` is inactive: -4.15%; for `CCOc1ccccc1NC(=O)C1CCCN(c2ncnc3onc(-c4ccc(F)cc4)c23)C1` (configuration not stated) it is inactive: 1.2%; for `COc1ccc(NC(=O)C2CCN(S(=O)(=O)c3cn(C)cn3)CC2)cc1Cl` it is inactive: 1.53%.
On the same count and under the same terms, the figure for `NC(=O)CN1C(=O)C2(SCC(=O)N2c2cccc(F)c2)c2ccccc21` (configuration not stated) is inactive: 1.27%.
The same measure, in the same setting: then `Cc1ccc(NC(=O)CSc2nnc(COc3ccc(Cl)cc3)o2)cc1`, with inactive: -0.988%; and `COc1ccc(C2C(C(=O)Nc3ccc(C)cc3C)=C(C)Nc3nc(SC)nn32)cc1OC` (configuration not stated), with inactive: -1.93%; and `CCCCn1c(=O)c2oc3ccccc3c2n(Cc2ccc(OC)cc2)c1=O`, with inactive: -8.25%.
Regarding `Cc1cc(C)cc(NC(=O)c2cn3c4c(ccc(Cl)c4c2=O)OC(C)C3)c1` (configuration not stated), the “activity change, negative = inhibition” value was inactive: -11.1%.
As to `COc1ccc(S(=O)(=O)Nc2ccc3c(c2)sc(=O)n3C)cc1Cl`, the “activity change, negative = inhibition” value is inactive: -14.2%.
On to `COc1ccc(Nc2ncnc3c2cnn3-c2cc(Cl)ccc2C)cc1OC`, for which the “activity change, negative = inhibition” value was inactive: -12%.
Still for that read-out and setting: then `Cc1cccc(-c2nc(SCCCOc3cc(C)c(Cl)c(C)c3)n3[nH]c(=O)cc3n2)c1`, with inactive: -0.998%; and `CCOc1ccc(OCCOCCn2c(-c3ccc(Cl)cc3)nc3ccccc3c2=O)cc1`, with inactive: -6.14%; and `CSc1ncc(C(=O)NCc2ccc(F)cc2)c(-c2ccccc2)n1`, with inactive: -2.74%.
Same read-out and setting: then `CCCCN(CC)CCCNC(=O)Cn1nc(CC)n2c(cc3sccc32)c1=O`, with inactive: 3.59%.
On to `CCOC(=O)c1ccc(NC(=O)CCCn2nc(C)c3sc4ccccc4c3c2=O)cc1`, for which the “activity change, negative = inhibition” value is inactive: 0.554%.
Take `COc1ccc2c(c1)c1c(c(=O)n(CCc3ccccc3)c(=O)n1Cc1cccc(C)c1)n2C`: the “activity change, negative = inhibition” value is inactive: -7.99%.
Same read-out and setting: then `Cc1ccc(C(=O)OC2=C(C(=O)c3ccccc3)N(C)S(=O)(=O)c3ccccc32)cc1`, with inactive: 1.12%.
Still for that read-out and setting: the figure for `COC(=O)CC(=O)CSc1nc2cc(C(=O)NC(C)C)ccc2c(=O)n1CCc1ccccc1` is inactive: 0%; for `O=C(Cc1ccc(-c2ccccc2)cc1)NCCS(=O)(=O)N1CCN(c2cccc(Cl)c2)CC1` it is inactive: -5.97%; for `CCN(C(=O)CSc1nnc(-c2cc3occc3n2C)n1-c1ccccc1C)c1ccccc1` it is inactive: -1.95%.
On the same count and under the same terms, the figure for `O=C(CN1C(=O)COc2ccc(S(=O)(=O)N3CCOCC3)cc21)NCc1ccc(Cl)cc1` is inactive: -0.142%; for `Cc1nc2cc(-c3ccc(Cl)cc3)nn2c(C)c1CCC(=O)N1CCN(c2ccccc2)CC1` it is inactive: 1.8%.
Turning to `CS(=O)(=O)c1ncc(Cl)c(C(=O)N2CCN(c3cccc(Cl)c3)CC2)n1`, the Potency was active: 464 nM.
On to `Cc1oc2ncn(CC(C)C)c(=O)c2c1C(=O)NCc1cccc(Cl)c1`, for which the “activity change, negative = inhibition” value was inactive: 3.22%.
Still for that read-out and setting: then `CCOc1ccc(Nc2sc(C(=O)c3ccc(F)cc3)c(N)c2S(=O)(=O)c2ccc(C)cc2)cc1`, with inactive: -14.2%; and `CCOc1ccc(C2C(=O)N(C3CCCCC3)CC(=O)N2Cc2ccccc2OC)cc1OC` (configuration not stated), with inactive: 12.7%.
Same read-out and setting: the figure for `CC(C)Oc1ccc(CNC(=O)c2cc3cccc4c3n2CC(C)S4)cc1` (configuration not stated) is inactive: -8.59%; for `CCc1ccc(-c2nc3c(c(SCc4ccccc4)n2)Cc2c(CO)cnc(C)c2O3)cc1` it is inactive: -0.125%; for `Cc1ccc(-c2onc(C)c2C)cc1S(=O)(=O)N1CCC(C)CC1` it is inactive: -3.2%.
Same read-out and setting: the figure for `Cc1ccc(Cn2c(C(=O)Nc3ccc(Cl)cc3)cc3sccc32)cc1` is inactive: -10.4%.
Regarding `COc1ccc(Cl)cc1NC(=O)c1ccc(CN2C(=O)CCn3nc(C)cc32)cc1`, the “activity change, negative = inhibition” value was inactive: -5.15%.
On the same count and under the same terms, then `COc1cc(Cl)c(C)cc1NC(=O)CNC(=O)Cn1ccc2ccccc2c1=O`, with inactive: -9.92%; and `COc1ccc(C2c3c(n(C)c4ccccc34)C(=O)N2CC(=O)Nc2c(C)cc(C)cc2C)cc1` (configuration not stated), with inactive: 0.147%; and `CC(C)Cn1cc(NC(=O)NCc2ccc(Cl)cc2)c2ccccc2c1=O`, with inactive: -6.76%.
Same read-out and setting: the figure for `CCC(=O)N1c2ccccc2CC1C(=O)NCCCN1CCN(c2cccc(Cl)c2)CC1` (configuration not stated) is inactive: 0%.
On the same count and under the same terms, then `Cc1ccc(C)c(NC(=O)CSc2nc(=O)n(CCN3CCOCC3)c3c2CCC3)c1`, with inactive: -0.493%; and `Cc1c(C(=O)NCc2ccccc2Cl)sc2nc3n(c(=O)c12)CCCC3`, with inactive: 2.98%.
Consider `CCOc1ccccc1CNC(=O)C(CC)n1nc(C)c2c(C)n(-c3ccccc3)nc2c1=O` (configuration not stated), for which the “activity change, negative = inhibition” value is inactive: -8.8%.
On the same count and under the same terms, then `COc1ccc(Br)c2c1-c1nc(NC(=O)c3ccc(F)cc3)sc1C2`, with inactive: 3.13%.
Same read-out and setting: the figure for `CCOC(=O)N1CCC(NC(=O)c2ccc3c(c2)N(Cc2ccccc2)C(=O)c2ccccc2S3(=O)=O)CC1` is inactive: -0.0534%; for `Cc1ccc2c(c1)C(=O)OC(C(=O)Nc1ccc(C(=O)O)cc1)C2` (configuration not stated) it is inactive: -12.1%.
The same measure, in the same setting: the figure for `O=C(Nc1ccc(Cl)cc1)c1ccc2oc(=O)n(Cc3ccccc3)c2c1` is inactive: -14.3%; for `COc1ccc(C(=O)CN2CCN(S(=O)(=O)c3ccc(F)cc3)CC2)cc1` it is inactive: -6.43%; for `CC(=O)N1CCC2(CC1)OC(=O)C(C)=C2C(=O)NCc1ccccc1Cl` it is inactive: 6.2%.
On to `COc1ccc(-c2cn3c(n2)sc2cc(C(=O)Nc4ccc(F)cc4)ccc23)cc1`, for which the “activity change, negative = inhibition” value is inactive: 4.86%.
Still for that read-out and setting: the figure for `Cc1cc(NC(=O)c2ccc(F)cc2)ccc1-c1cc2ccccc2oc1=O` is inactive: 15%.
As to `Cc1ccc(Cl)cc1NC(=O)c1csnn1`, the “activity change, negative = inhibition” value was inactive: -3.03%.
Still for that read-out and setting: then `CC(=O)OC1=C(C(C)=O)N(Cc2ccccc2)S(=O)(=O)c2ccccc21`, with inactive: -2.74%; and `CC1CCN(C(=O)CCS(=O)(=O)c2cc3c(cc2Cl)NC(=O)CO3)CC1`, with inactive: -4.91%; and `CCOC(=O)c1nnn(CC(=O)NC(=O)Nc2ccccc2F)c1C(=O)OCC`, with inactive: -9.38%.
On the same count and under the same terms, then `CCCCSc1nnc2[nH]c(=O)cc(C)n12`, with inactive: 0.558%; and `O=C(c1cc(-c2ccc(Br)cc2)n[nH]1)N1CCN(S(=O)(=O)c2ccc(Br)s2)CC1`, with inactive: -21.2%.
Still for that read-out and setting: the figure for `CCN(CC)S(=O)(=O)c1ccc(NC(=O)c2nn(C)c3c2CSc2ccccc2-3)cc1` is inactive: 2.51%.
For the compound `Cc1cccc(CC(=O)NC2CC(=O)N(c3ccc4c(c3)OCCO4)C2)c1` (configuration not stated), the “activity change, negative = inhibition” value was inactive: 1.7%.
For `Fc1ccc(Nc2nc(SCc3cccc(F)c3)nc3ccccc23)cc1`, the “activity change, negative = inhibition” value is inactive: 1.66%.
On the same count and under the same terms, the figure for `Cc1ccccc1CSc1ncc(Cl)c(C(=O)NCc2ccccc2)n1` is inactive: -0.84%; for `CCOC(=O)c1ccc(N2C(=O)c3[nH]nc(-c4ccc(C)cc4)c3C2c2ccc(O)cc2)cc1` (configuration not stated) it is inactive: -1.8%; for `CCC(=O)N1CCc2cc(Br)cc(S(=O)(=O)CCC(=O)Nc3ccc(CC)cc3)c21` it is inactive: -1.05%.
As for `Cc1cc(Br)cc(C)c1NC(=O)c1cnc2ccccn2c1=O`, the “activity change, negative = inhibition” value was inactive: -0.951%.
The same measure, in the same setting: the figure for `COc1ccc(NC(=O)C(NC(=O)Cc2cccs2)c2ccc(OC)cc2)cc1` (configuration not stated) is inactive: -9.22%; for `Cn1c2c(c(=O)n(C)c1=O)C(c1cccc(O)c1)CC(=O)N2` (configuration not stated) it is inactive: 7.17%.
